Results published in the supplement of paper PMC11417369.
The other results are listed elsewhere or left out.

The sequences below were run on PfSIP2 AP2 domain 1 (GST-tagged) (assay: gcPBM binding intensity (ln(normalized median fluorescence intensity)); higher = stronger DNA binding).
How it was run: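 DNA-binding domains from P. falciparum, fused to GST and produced in E. coli, were put on an Agilent 4 × 180k double-stranded probe array for 1 h in 1× PBS holding 1% milk, 0.2 mg/ml BSA, 0.5% salmon testes DNA and 0.03% Triton X-100. Probes were primer-extended, 36 bp long and drawn from intergenic genomic regions, with negative controls included. After Alexa488 anti-GST antibody detection and a 488 nm scan, binding intensity was set as the highest Masliner-normalised natural-log median intensity across replicate spots of either probe orientation.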

| Sequence | gcPBM binding intensity (ln) |
| --- | --- |
| TATGAAGTGCACAATACACACTAATTCTATATAAAT [CACACA_site7269] | 11.2 |
| TAAGAATACGAAAGGTGTACACTGTGGAGACTTCAA [XGTACX_site2619] | 7.36 |
| TTGCACTCGTAAAAAGCACACATATAAAAACATTTA [CACACA_site7997] | 8.15 |
| TTAAAAATGTTATAATGTACATATAATATTTTATGA [XGTACX_site5954] | 7.01 |
| ATTATAAATATAAATATAAATATATATTGTTCCGCA [TGCATGCA_negctrl_site470] | 6.6 |
| TTTATCCTTCTTTTGAGTACTCAAAGAGACCTATAA [XGTACX_site8050] | 7.36 |
| AAAAAAAACAGACACACACACAAATATTTATATATC [CACACA_site6342] | 6.89 |
| TATATATATATATATATATATATTTTTATTATATAT [XGTACX_negctrl_site89] | 9.32 |
| ATTATAAATAAAATATGTACATATGTATAAATACAT [XGTACX_site4002] | 7.05 |
| AAAACACATACTATATGTACATATAATAATTTATAT [XGTACX_site4525] | 7.09 |
| AAGAAAAAAAAAAAAAAAAAAAAAAAAAAAAAAAAA [TGCATGCA_negctrl_site263] | 7.12 |
| TTCTGTATATAGTGTGCACACAATTAAAAAAAAAAA [CACACA_site8400] | 9.67 |
| TAATGTACTTAAACCGCACACATATAAAAAAATAAA [CACACA_site8926] | 7.64 |
| TTATTTTAATTTTTGGTGCATATTCAAGTGTACCTT [GTGCAC_site9791] | 9.68 |
| TATTTACATATTTATATACACACTTTTGCGTGTCTG [CACACA_site1110] | 6.9 |
| AAATAAAATACAATATGATAAAATGTTATCATATAT [CACACA_negctrl_site538] | 6.82 |
| ATAAATAATATAAATACACACTAAAAAAGATATATA [CACACA_site6397] | 7.01 |
| AATAAAAGGAATAATTGTACATAATGATTATACGTT [XGTACX_site7548] | 6.95 |
| GTTGTAAAAAGAAAATGTACGTAATAAATATATATA [XGTACX_site3081] | 7.45 |
| AATACTCCATTGTATAGTACATATATTTTTATTTAT [XGTACX_site3641] | 6.87 |
| AATAAAAAAAAAAATAATATATATGTATAAATATAT [CACACA_negctrl_site1561] | 6.83 |
| TATTTTTATTTATATACACACTTACATATTTATATT [CACACA_site7666] | 7.14 |
| AGAATTTATAAAAACTGTACATATTTTCCAGTTATA [XGTACX_site2848] | 6.79 |
| ATATAATATAACAATACGCACACGTATACAAAAAAA [CACACA_site3151] | 7.18 |
| ATGTAATCATTTTCGACTTTTTTTTTTTTTTTTTTT [CACACA_negctrl_site1132] | 7.87 |
| AGGAAATGTTTATATACATGCATAATTAAATATAAT [TGCATGCA_site672] | 6.89 |
| ATAAAATGCGCAAACACACACAAAAAAAAGATATAT [CACACA_site6875] | 7.08 |
| TTTTTAATTAATCTTATAAATATTTATAAATATATA [CACACA_negctrl_site1485] | 6.79 |

| Sequence | gcPBM binding intensity (ln) |
| --- | --- |
| TTTTTTTTTTTTTTTTTTTTCTTCATTTAATTTATA [GTGCAC_negctrl_site17] | 7.05 |
| ATTATATTTCAATTATGTACATATAAAATGAATAAA [XGTACX_site4204] | 7.19 |
| AATTTTCATTTTAGAAGTACACACAAAAAATAAAAT [XGTACX_site4426] | 7.07 |
| TTTTCATGTTTTTTTCTTTATTTTTTTTTTTTTTTT [GTGCAC_negctrl_site511] | 7.31 |
| TTTTTTTATTATTATTGTACAAGGCCTTAGGTGATT [XGTACX_site5050] | 7.26 |
| TACTTAATTATAAGGACATGCACAAAAGGAATTATT [TGCATGCA_site468] | 9.06 |
| TATTAAACAAATTATGCAAAAATAAATCAATATGTT [CACACA_negctrl_site171] | 6.89 |
| CAATTTATAAAGAAAACACACATATACATATATACA [CACACA_site1260] | 6.9 |
| ATTATTTTATAATTCACACATAAATAAAAAAAAAAT [CACACA_site5290] | 6.86 |
| TTAGGAAGCTCACAAAATAAAGTGAAAAGAAGAAAA [XGTACX_negctrl_site572] | 6.64 |
| AAAAGTTTTATTTAAATGAATTAATCTTTACTATAT [CACACA_negctrl_site282] | 6.69 |
| TGATTTCCAGGTTATTGTACAAAATTAATTTTCGAA [XGTACX_site2491] | 7.25 |
| ATATATATAAAACACACACACAAAAAAAATAAAGAC [CACACA_site117] | 8.02 |
| TAAATATTATTTCATAGTACTTTTATTATTGATATA [XGTACX_site5566] | 6.93 |
| TTTTGTAGTTTATAAATAAAAGAGAATATGGTGCTT [CACACA_negctrl_site413] | 7.7 |
| TAAATAAATATATATACACACATATATATATATATA [CACACA_site598] | 9.65 |
| TGTATGTATTAATGCGCACACAAAAAATAACAATAT [CACACA_site1848] | 9.32 |
| AAAAAAAAAAAAAAGAGTACACAGACGTTCAAAGGT [XGTACX_site7566] | 7.5 |
| ACAGAGCTTTAAATACGTACATAATATATATTAAAT [XGTACX_site8221] | 7.25 |
| ATATAGATATATAGTAGTACTTGTTATATAAGATAA [XGTACX_site6336] | 7.2 |
| TATTGATTTAGAAACACACACTCGAAGATGTTTAAC [CACACA_site1129] | 6.84 |
| TTTAAAAAATGTTATATTATATAATTAAAAAAAAAA [CACACA_negctrl_site1509] | 6.63 |
| ATATATATATATAAATGTACATTGTGTGTTGTAAGA [XGTACX_site2434] | 9.11 |
| ATAAAAAAAAAATAATGTACTTATATATATATATAT [XGTACX_site8282] | 9.32 |
| GTATATTATTTACGTTTGCACTTCATTTTATAGTAA | 8.08 |
| TATTAATTGTGGCACCTTGTATGTTTACAATGACAT [CACACA_negctrl_site1383] | 8.32 |
| TTCTTCAAAAAAAATTGTACACATCTCTCAAATGTT [XGTACX_site2952] | 6.99 |
